We go through 65 compounds from publication PMC6919601, “Identification of Plasmodium dipeptidyl aminopeptidase allosteric inhibitors by high throughput screening” (PLoS ONE, 2019).

About 230 (0.21%) of roughly 110,000 compounds showed an effect of 50% or more. The list shows a part of the results.
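Also: 30 min substrate incubation versus DMSO and 10 µM JCP410 controls.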

DPAP1, sequence (Q8IIJ9 whole entry, looked up): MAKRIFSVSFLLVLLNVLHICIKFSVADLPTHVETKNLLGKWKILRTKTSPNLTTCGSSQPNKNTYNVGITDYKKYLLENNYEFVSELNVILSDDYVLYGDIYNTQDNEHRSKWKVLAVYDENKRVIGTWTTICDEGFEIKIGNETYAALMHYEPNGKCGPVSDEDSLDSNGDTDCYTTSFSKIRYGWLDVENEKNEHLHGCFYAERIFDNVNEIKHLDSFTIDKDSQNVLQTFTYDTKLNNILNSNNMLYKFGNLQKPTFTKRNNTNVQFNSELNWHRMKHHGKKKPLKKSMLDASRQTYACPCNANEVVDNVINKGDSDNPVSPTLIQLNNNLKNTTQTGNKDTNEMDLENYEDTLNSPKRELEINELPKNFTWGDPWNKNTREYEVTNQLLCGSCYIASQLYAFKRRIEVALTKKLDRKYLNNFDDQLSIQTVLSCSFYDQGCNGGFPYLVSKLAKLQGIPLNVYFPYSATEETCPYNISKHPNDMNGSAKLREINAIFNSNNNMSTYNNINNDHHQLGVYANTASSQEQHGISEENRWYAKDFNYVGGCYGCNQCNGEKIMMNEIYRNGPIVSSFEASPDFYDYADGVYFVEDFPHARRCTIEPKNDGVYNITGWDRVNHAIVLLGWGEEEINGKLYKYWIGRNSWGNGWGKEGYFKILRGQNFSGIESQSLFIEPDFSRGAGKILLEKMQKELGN

This experiment concerns the target DPAP1 (Plasmodium falciparum, UniProt Q8IIJ9). Description: primary screen, percent inhibition; read by cleavage of a fluorogenic dipeptide substrate; higher = more effect of the substance. Details: species or system P. falciparum D10 trophozoite lysates; single well.
With `COc1cc(/C=C(/C#N)C(N)=S)ccc1OCCN1CCOCC1`, the “% Inhibition @ 10 uM” value was found to be 28.2%.

For the compound `CCc1ccc2occ(CC(=O)Nc3nnc(C(C)C)s3)c2c1`, the “% Inhibition @ 10 uM” value was -0.671%.

For the compound `CC1=CC2=NC(C(F)(F)F)(C(F)(F)F)N=C(c3cccnc3)N2C=C1`, the “% Inhibition @ 10 uM” value was -3.53%.

Consider `CCc1nn(CC(=O)N2CC(C)CC(C)C2)c(=O)c2cccn12` (centres unmarked), for which the “% Inhibition @ 10 uM” value is on record as -0.405%.

In the case of `C(=C\c1ccccc1)/CN1CCN(Cc2ccc3ccccc3c2)CC1`, the “% Inhibition @ 10 uM” value was -1.77%.

Consider `c1ccc(C2NCc3ccccc3-n3cccc32)cc1` (centres unmarked), for which the “% Inhibition @ 10 uM” value is reported as -0.736%.

As for `Cc1cc(/C=C2\NC(=O)N(Cc3ccc(Cl)cc3)C2=O)c(C)n1-c1ccc2c(c1)OCO2`, the “% Inhibition @ 10 uM” value came to 5.37%.

Consider `CCn1nc(C)c(NC(=O)c2c(Cl)cccc2Cl)c1C`, for which the “% Inhibition @ 10 uM” value was -9.31%.

On to `CN1C(=O)c2ccccc2C(C(=O)NCCCN2CCCCCC2)C1c1cn(C)c2ccccc12` (centres unmarked), for which the “% Inhibition @ 10 uM” value is reported as 8.12%.

On to `CC(C)CC1(C)N=C(c2ccccc2)C(=S)N1` (centres unmarked), for which the “% Inhibition @ 10 uM” value is given as 4.63%.

On to `Cc1ncc(CO)c2c1Oc1nc(-c3ccccc3F)nc(SC(F)F)c1C2`, for which the “% Inhibition @ 10 uM” value is reported as -1.11%.

Consider `COc1ccc(NC(=O)C2CCN(S(C)(=O)=O)CC2)c(OC)c1`, for which the “% Inhibition @ 10 uM” value is on record as -6.36%.

Regarding `O=C1O[C@@H]2C[C@H]3C[C@@H]2[C@@H]1[C@H]3C(=O)N1CCCCC1`, the “% Inhibition @ 10 uM” value was -1.15%.

As for `Cc1cc(C)c2c(N)c3ccccc3nc2n1`, the “% Inhibition @ 10 uM” value is given as -1.98%.

In the case of `CC1(C)CC(=O)C2=C(C1)N(c1ccccc1)C(N)=C(C(N)=O)C2c1ccc(Cl)cc1` (centres unmarked), the “% Inhibition @ 10 uM” value was -1.2%.

Take `COc1ccc(S(=O)(=O)N2CCN(Cc3ccccc3C(F)(F)F)CC2)cc1`: the “% Inhibition @ 10 uM” value amounted to 4%.

Take `O=C(O)C(=Cc1cccc([N+](=O)[O-])c1)C(=O)O`: the “% Inhibition @ 10 uM” value is given as 0.989%.

On to `CC(NC(=O)C1CCN(c2cnccn2)CC1)c1ccccc1` (centres unmarked), for which the “% Inhibition @ 10 uM” value is given as 5.39%.

For the compound `Cc1ccccc1C1OC2(C(=O)c3ccccc3C2=O)C2C(=O)N(C3CCCCC3)C(=O)C12` (centres unmarked), the “% Inhibition @ 10 uM” value amounted to 2.69%.

Regarding `O=S(=O)(N1CCCCC1)N1CCN(CC(O)COc2ccc3ccccc3c2)CC1` (centres unmarked), the “% Inhibition @ 10 uM” value was -1.05%.

For the compound `Cc1ccc(-n2ncc3c(NCCCN4CCCC4=O)ncnc32)c(C)c1`, the “% Inhibition @ 10 uM” value stood at 5.54%.

On to `C=CCn1c(S)nnc1-c1ccc(C(C)(C)C)cc1`, for which the “% Inhibition @ 10 uM” value is 0.454%.

With `CC(=O)Nc1ccc(NC(=O)c2ccc(Cl)c(Cl)c2)cc1`, the “% Inhibition @ 10 uM” value is listed as -7.99%.

On to `CCc1ccc(C2N3CC4(C)CN2CC(C)(C3)C4=O)cc1` (centres unmarked), for which the “% Inhibition @ 10 uM” value is given as -3.49%.

As for `CCCNC(=O)Cn1nc(CC)n2c(cc3sccc32)c1=O`, the “% Inhibition @ 10 uM” value is on record as 1.8%.

In the case of `CCOc1ccccc1C(=O)Nc1ccc(C(C)=O)cc1`, the “% Inhibition @ 10 uM” value is recorded as -7.23%.

On to `Cc1ccc(-c2c(CSC(=N)N)csc2C)cc1`, for which the “% Inhibition @ 10 uM” value turned out to be 40.9%.

`COc1ccc(CNC2CC(C)(C)OCC2Cc2ccccc2)cc1` (centres unmarked): the “% Inhibition @ 10 uM” value is given as -8.21%.

In the case of `CC(C)(C)c1ccccc1NC(=O)c1ccc(Br)o1`, the “% Inhibition @ 10 uM” value is listed as -1.04%.

As for `CCOc1cc(CN2CCN(c3ccccc3OC)CC2)ccc1O`, the “% Inhibition @ 10 uM” value amounted to 0.605%.

For the compound `COc1cc(C2CC(=O)NC3=C2C(=O)CC(c2ccccc2Cl)C3)cc(OC)c1OC` (centres unmarked), the “% Inhibition @ 10 uM” value is on record as -2.87%.

Consider `CC1=C(c2ccc(C)c(C)c2)S(=O)(=O)N=C1NCCC1=CCCCC1`, for which the “% Inhibition @ 10 uM” value is listed as -4.68%.

As to `CCOC(=O)C1=C(C)N(C)C(=O)NC1c1cc(OC)ccc1OC` (centres unmarked), the “% Inhibition @ 10 uM” value turned out to be 0.345%.

Take `O=C(Cc1ccccc1F)Nc1cccc2cccnc12`: the “% Inhibition @ 10 uM” value is reported as -0.884%.

As to `CC(=O)N(CCCN(C)C)c1nc2ccc(F)cc2s1`, the “% Inhibition @ 10 uM” value is recorded as -6.62%.

As for `CC1CCc2c(C(=O)NCCC3=CCCCC3)csc2C1` (centres unmarked), the “% Inhibition @ 10 uM” value came out at 3.54%.

Consider `O=S(=O)(Nc1ccccc1)c1ccc(NS(=O)(=O)c2cc(Cl)ccc2Cl)cc1`, for which the “% Inhibition @ 10 uM” value came out at 2.64%.

In the case of `CCOC(=O)c1cc2ccccc2nc1N`, the “% Inhibition @ 10 uM” value came to 1.76%.

Consider `CC1=NN(c2cccc(S(N)(=O)=O)c2)C(=O)C1`, for which the “% Inhibition @ 10 uM” value was 0.937%.

Consider `COc1ccc(NC(=O)c2sc3nc4c(cc3c2N)CCCC4)cc1Cl`, for which the “% Inhibition @ 10 uM” value worked out at 1.17%.

For `O=C(CN(c1ccc(F)cc1)S(=O)(=O)c1ccccc1)Nc1cccc(Cl)c1`, the “% Inhibition @ 10 uM” value is on record as 0.206%.

`Cc1nc2nc(C)c(CCC(=O)NCC(C)c3ccccc3)c(C)n2n1` (centres unmarked): the “% Inhibition @ 10 uM” value is reported as -0.465%.

`COc1ccc(-n2nnnc2C2CCN(S(=O)(=O)c3cccs3)CC2)cc1`: the “% Inhibition @ 10 uM” value is given as -7.24%.

Regarding `Cn1c(=O)[nH]c(=O)c2c1nc(Sc1nc3ccccc3[nH]1)n2Cc1ccc(Cl)cc1`, the “% Inhibition @ 10 uM” value was -0.946%.

As for `Cc1cc(C)c(NC(=O)CN2CCCCC2)c(C)c1`, the “% Inhibition @ 10 uM” value was 6.96%.

Regarding `CN(C)CCN(Cc1ccccc1)Cc1cc(Cl)cc(Cl)c1O`, the “% Inhibition @ 10 uM” value is -7.17%.

As to `O=C(Cn1cnc2c(nnn2Cc2ccc(F)cc2)c1=O)NCc1ccc2c(c1)OCO2`, the “% Inhibition @ 10 uM” value is given as -11.8%.

`CCCCN1C(=O)CN(CCc2ccccc2)C(=O)C1c1ccc(OC)cc1` (centres unmarked): the “% Inhibition @ 10 uM” value is given as -0.519%.

`CC(C)CCN(C(C)c1cccs1)S(=O)(=O)c1csc(C(N)=O)c1` (centres unmarked): the “% Inhibition @ 10 uM” value is on record as 1.22%.

In the case of `COc1cc2c(cc1OC)C(c1cc(Br)ccc1O)N(C(C)=O)CC2` (centres unmarked), the “% Inhibition @ 10 uM” value was 0.98%.

In the case of `COc1ccccc1NC(=O)Cc1cccc2ccccc12`, the “% Inhibition @ 10 uM” value turned out to be 5.66%.

Consider `COc1ccc(OCc2nn3c(-c4ccccc4Cl)nnc3s2)cc1`, for which the “% Inhibition @ 10 uM” value turned out to be 4.96%.

For the compound `Cc1ccc(-c2nnn(CC(=O)N(c3cnc4ccccc4c3)C(C)C(=O)NCCC(C)C)n2)cc1` (centres unmarked), the “% Inhibition @ 10 uM” value is recorded as -1.44%.

For the compound `CCOC(=O)C1=C(C)NC(=O)NC1c1ccccc1O` (centres unmarked), the “% Inhibition @ 10 uM” value came to 3.16%.

On to `CCOc1ccc(C(=O)/C=C/c2cn(CC(O)CN3CCOCC3)c3ccccc23)cc1` (centres unmarked), for which the “% Inhibition @ 10 uM” value is on record as 7.77%.

Consider `O=c1c2cccnc2n(Cc2ccc(Cl)cc2)c(=O)n1CCc1ccccc1`, for which the “% Inhibition @ 10 uM” value is -1.66%.

In the case of `CC(=O)N1CCC(N[C@H]2CCCCNC2=O)CC1`, the “% Inhibition @ 10 uM” value is listed as 0.273%.

Regarding `COc1ccc(-c2cc(C(N)=O)[nH]n2)c(F)c1`, the “% Inhibition @ 10 uM” value came out at 2.7%.

Consider `COCc1nc2ccccc2n1Cc1ccc(Cl)c(Cl)c1`, for which the “% Inhibition @ 10 uM” value is on record as 0.287%.

In the case of `Cc1cc(O)nc(SCc2cc(=O)n3nc(C)sc3n2)n1`, the “% Inhibition @ 10 uM” value is on record as -3.95%.

With `COc1ccc(-c2cc(-c3ccc(C)cc3O)[nH]n2)cc1`, the “% Inhibition @ 10 uM” value is given as -2.73%.

Consider `COc1ccc2[nH]c3c(c2c1)CCn1c-3nc2ccccc2c1=O`, for which the “% Inhibition @ 10 uM” value turned out to be 14%.

Consider `COc1ccc2[nH]c3nc4ccccc4nc3c2c1`, for which the “% Inhibition @ 10 uM” value was -1.53%.

In the case of `Cc1nn(-c2ccc(F)cc2)c(-n2cccc2)c1C(=O)NCCc1cccs1`, the “% Inhibition @ 10 uM” value is -6.49%.

As for `CCCc1[nH]nc2c1C(c1ccc(OC)c(OC)c1OC)C(C#N)=C(N)O2` (centres unmarked), the “% Inhibition @ 10 uM” value was -4.75%.
